From the supplement of paper PMC8728848
This is one part of the list.

What was measured:
[1] = biological target: Neu5Gc(a2-8)Neu5Gc(a2-6)Gal(b1-4)GlcNAc; assay: glycan array binding signal (z-score within array); higher = stronger binding; settings: glycan notation: IUPAC condensed, linker removed
Method in brief: (§1)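 From the Consortium for Functional Glycomics database, 3228 arrays were curated, keeping only those whose protein sequence was available. Binding is given as a within-array Z-score averaged across arrays sharing a protein sequence and across linkers. Negative Z-scores can be read as non-binding.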

[2] = biological target: Neu5Gc(b2-6)Gal(b1-4)GlcNAc; assay: as above; settings: glycan notation: IUPAC condensed, linker removed
Method in brief: as §1

B1: Cp ZmpB (Clostridium perfringens), Q0TR08 (protein)
chain: MNKRKIAAIILATMITNLSATTIDVLAQELNTKNNSKVEVSHDDESHQARVSKFDLYNSDKLDAYNQEFQVSRSNIKSINNNGGKYNSSTIDKAIDGNLETHWETGKPNDANFTNEVVVTFNEITNIDRIVYSARRDSARGKGFAKEFEIYASLKDEGDDFNLVSSGEYTESTRDLVEIKFNPTDFKRLKFKFKKADQNWASAAEFMFYKEDKLNEKFNGLFTDSSMNKVSEEFNTLEKLNAFENELKDHPIYDLYKEGLNNARAILTETSENPTKATLGQITYNLNDDYNNQYRMPYKNIKAIKNNGRHYAAQNIEKAIDNDVNTYWETGTLNSSSFNNEVEVEFNDLVTLDRIVYGSRQSDLKGFAEEVYIYASRTSKGDTYKLVATGAHEATKGLVEAKFEPTEFKRVKFKFKKSKQNSATLNELMFYKPDEVYSSIPKLFTDGTMSELSEEFNSLEKINAFKEKAKNHPLYNDFNETIELAESLISNPRKEDVLELEMRGDSISEAKKRKVWNFQDWQITGLSARAGDKITVYVDVAEGDPTPTLLYKQSLTQHGGATSFQLKPGKNEITIPEINYESNGIPKDVIQGGDLFFTNYKSDSQKRAPKVRIEGASKYPVFILGKSDENEVMKELEAYVEKIKAEPKTTPNIFAVSSNKSLEFVQATYALDWYKKNNKTPKYTAEQWDQYIADAMGFWGFDNSKDVNSDFNFRIMPMVKNLSGGAFMNAGNGVIGIRPGNQDAILAANKGWGVAHELGHNFDTGGRTIVEVTNNMMPLFFESKYKTKTRITDQNIWENNTYPKVGLDDYSNNELYNKADSTHLAQLAPLWQLYLYDNTFYGKFERQFRERDFGNKNREDIYKSWVVAASDAMELDLTEFFARHGIRVDDKVKEDLAKYPKPDKKIYYLNDLAMNYKGDGFTENAKVSVSTSGSNGNIKLSFSVDDENKDNILGYEIRRDGKYVGFTSNDSFVDTKSNLDEDGVYVVTPYDRKLNTLNPIEVNALQPTLSVNPVITLALGEEFNEEEYIVAKDIKGNSLSESVKVKSSNVNTSKVGEYEVLYSLEDSKGNEYTKTSKVNVVSRKEYMSDLTPKQSSNGWGTVRKDKSISGGVIGLTRDGDFVDYNKGLGLHSNAEYVYDLEGKDYDYFESYVGVDKAMSSRPASSVIFKVLVDGEEKFNSGVMRSTTPQKYVKVDVKNAKELKLIVNDAGDGDSSDHASFGDAKLATLSSKPIIKGENLAYSMDEKVDLMKGITATDIEDGNITSKVQIKSSDFVEGKSGIFTVVYSVTDSDGLTSECSRTIAVTDKETQLSDLNWKSATIGSGSVRKDRAVSGNQIRLLNEDNSVETFAKGIGTHSYSEIVYNSEGYDIFDTWVGIDRHVADKKVSSVKFKVYVDGELKAETDVMRIDTPKKRLVVDVRNSKEIKLVVDVADNGNNWDHADWADAKFRNLAEYDASELNKAIEEAKKLDLNNYTEESSEALKNAISKGEEALLSKDKETINSALEELNKEMNSLVKVDLNAVINIPDKYLLKSIQNQLNKTGDITLGDMYSLTTLTLSGVEDLTGLENAKNLETLNMDYNEVKDLRPLSKLKKLNTLNAQEQFIAAGELKPSNGKVIGDSKVYNREGKNVAKTIRVVDKNGNTILEQDAKDEFTINTKDLSSGLYGVHVLFEDEGFSGVMFYLFNV
[1]
  glycan array binding signal (z-score): -0.462
[2]
  glycan array binding signal (z-score): -0.284
